Usually IC50 stands for the concentration that inhibits the measured activity by half.

In patent publication US12162894B2, “Structural analog of Cyclotheonellazole A, and synthetic method therefor and application method thereof” (The Second People's Hospital of Shenzhen (Shenzhen …, priority 2022, dated 2024) one finds IC50 data, which are given here for 1 compound.

In the experiment the target is main protease (Mpro) of SARS-CoV-2 virus (Severe acute respiratory syndrome coronavirus 2, UniProt P0DTD1). The experiment is described as follows: Inhibition of main protease (Mpro) of SARS-CoV-2, fluorescence kit (BPS Bioscience 78042-2). To be noted: 30 min pre-incubation at room temperature; Ex/Em=360/460 nm; slope of fluorescence; read-out: IC50, enzyme activity of the Mpro.

With `CCC[C@@H]1NC(=O)[C@@H](NC=O)CNC(=O)[C@H](CS(=O)(=O)O)NC(=O)/C=C/c2csc(n2)[C@H](Cc2ccc(O)cc2)NC(=O)C(=O)[C@H]([C@@H](C)CC)NC1=O` [TM], the IC50 is 129 µM.
